# According to PubChem BioAssay AID686971 (National Center for Advancing Translational Sciences (NCATS), 2013):
# In all, about 360,000 compounds went through this assay and about 7,500 (2.1%) were called active. Inconclusive means that the source gave no clear call. Such entries were picked first, then a sample of the others. Calls follow the shape of the dose curve; as a rule, active = well fitted cell-killing curve with a large enough effect; inconclusive = small, poorly fitted or top-dose-only effect, or effect the other way, or another doubt; inactive = no such curve, though single readings can be large or run the other way. No potency is given beside an inconclusive call; the fits are too rough.
# Assay: qHTS for induction of synthetic lethality in tumor cells producing 2HG: qHTS for the HT-1080-IDH1KD cell line;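 as to activity, negative = toxicity: 0% = DMSO wells and -100% = cell-free medium wells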
# Conditions: HT-1080 IDH1 knockdown viability, ATP luminescence, 48 h; activity, negative = toxicity: at 46.1 µM (top of the series) unless noted
# Procedure, shortened: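 Cytotoxicity counter-line: IDH1KD HT-1080, 48 h, CellTiter-Glo. Curves classed by r2, magnitude and activity.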
# Potency is read from the fitted curve at half-maximal effect; tags tell the direction and shape of the fitted curve.
SMILES,Potency,"activity, negative = toxicity"
O=C(NCCCN1CCCC1)c1cc(Sc2ccc(F)cc2)nc2ccccc12,active: 25.9 µM,–
Cc1ccc2nc(Cl)c3cc(C(=O)N(CCN(C)C)Cc4ccco4)sc3c2c1,active: 23.1 µM,–
COc1ccccc1NC(=O)Nc1ccccc1C(N)=O,–,inactive: 5.81%
O=S(=O)(Nc1ccccc1)c1ccc(Oc2ncc(C(F)(F)F)cc2Cl)cc1,"inconclusive [cytotoxic, single point]",–
CCNc1nc(-c2sc(NC(=O)C(C)(C)C)nc2C)c(-n2cc(-c3ccccc3)nn2)s1,"inconclusive [cytotoxic, single point]",–
O=C(Nc1nc(-c2ccccn2)cs1)c1cc(Cl)ccc1[N+](=O)[O-],"inconclusive [cytotoxic, full curve]",–
NC(c1csc(Nc2cc(NCCCO)ncn2)n1)c1ccccc1Cl (stereo unspecified),"inconclusive [cytotoxic, single point]",–
COc1ccc(-n2cnc3cc(NS(=O)(=O)c4ccccc4)ccc32)cc1,"inconclusive [cytotoxic, single point]",–
Cc1ccc(O)c(/C=N/NC(=O)Cc2ccc(Cl)cc2)c1,active: 13 µM,–
COc1cc([C@@H]2c3cc4c(cc3[C@@H](O[C@@H]3O[C@@H]5CO[C@@H](C)O[C@H]5[C@H](O)[C@H]3O)[C@H]3COC(=O)[C@H]23)OCO4)cc(OC)c1O,"inconclusive [cytotoxic, partial curve]",–
CCCNC(=O)N(C)C[C@@H]1Oc2cc(C#CC(C)(C)O)ccc2S(=O)(=O)N([C@H](C)CO)C[C@H]1C,–,inactive: 3.73%
c1ccc(CSc2ccc(-c3ccccn3)nn2)nc1,"inconclusive [cytotoxic, single point]",–
CC1CCCCN1S(=O)(=O)c1ccc(C(=O)Nc2nnc(C3CC3)o2)cc1 (stereo unspecified),"inconclusive [cytotoxic, partial curve]",–
CCCNc1nc(N2CCCC2)nc(N2CCCC2)n1,"inconclusive [cytotoxic, partial curve]",–
Cc1csc(NC(=O)c2cccs2)n1,"inconclusive [cytotoxic, single point]",–
Cc1nc(Cl)sc1C(=O)Nc1ccc(C(F)(F)F)cc1,–,inactive: 1.14%
Cc1ccc(NCc2nnc(SCC(=O)Nc3ncc(C)s3)n2Cc2ccco2)c(C)c1,"inconclusive [cytotoxic, single point]",–
COCc1cc(=O)[nH]c(Nc2nc(C)c3ccccc3n2)n1,"inconclusive [cytotoxic, single point]",–
Cc1[nH]n(-c2ccccc2)c(=O)c1/C=N/NC(=O)c1cccc([N+](=O)[O-])c1,"inconclusive [cytotoxic, full curve]",–
NNC(=O)C1CCN(S(=O)(=O)c2ccc(Cl)cc2)CC1,–,inactive: 4.06%
COc1cccc(-c2nc(=S)c3c(n2Cc2ccco2)CCCC3)c1,"inconclusive [cytotoxic, single point]",–
Fc1ccc(N2CCN(c3nc(CN4CCOCC4)nc4scc(-c5ccccc5)c34)CC2)cc1,"inconclusive [cytotoxic, single point]",–
FC(F)(F)c1cccc(NC(=S)NCCN2CCOCC2)c1,–,inactive: -2.77%
CCC(CO)(CO)N(CC(=O)Nc1ccc(OC)cc1)CC(=O)Nc1ccc(OC)cc1,"inconclusive [cytotoxic, partial curve]",–

SMILES,Potency,"activity, negative = toxicity"
O=C(CCC(=O)N/N=C/c1c[nH]c2ccccc12)NCc1ccccc1,"inconclusive [cytotoxic, full curve]",–
CSc1nc(N(C)NC(=O)c2ccc(F)cc2)c2ccccc2n1,active: 0.517 µM,–
CC(C)c1cc(C(=O)OCC(=O)NC(=O)NCc2ccco2)c(O)c(C(C)C)c1,active: 25.9 µM,–
CC(C)(C)C(=O)Nc1cccc(-c2cc(-c3c(Cl)cccc3Cl)no2)c1,–,inactive: -11.3%
COc1ccc(Cc2nnc(N/N=C/c3ccccc3O)[nH]c2=O)cc1OC,"inconclusive [cytotoxic, full curve, poor fit]",–
CC1(C)Cc2ccccc2-c2nnc(SCC(=O)N3CCc4ccccc43)n21,"inconclusive [cytotoxic, single point]",–
O=C(CN1C2CCCC1CC(NC(=O)C1CCCCC1)C2)Nc1ccccc1C(F)(F)F (stereo unspecified),"inconclusive [cytotoxic, single point]",–
Oc1cccc(C(Nc2nccs2)c2ccc3cccnc3c2O)c1 (stereo unspecified),active: 18.4 µM,–
CCCCn1c(N)c(N(CCOC)C(=O)c2oc3c(Cl)cccc3c2C)c(=O)[nH]c1=O,–,inactive: -10.6%
Cc1cc(C(=O)Nn2cnc3ccccc3c2=O)ccc1[N+](=O)[O-],–,inactive: -2.58%
CC1CCCN(CCCNC(=O)c2ccc3c(c2)N(Cc2ccc(F)cc2)C(=O)c2ccccc2S3=O)C1 (stereo unspecified),"inconclusive [cytotoxic, single point]",–
CCOC(=O)NC(=O)CSc1nnc(C)s1,"inconclusive [rising, single point]",–
CCOc1ccc(CNc2ncc(-c3ccccc3)n2C)cc1,–,inactive: -11.7%
Cc1cc(C)c(C)c(OCCNCc2ccccc2)c1,active: 14.6 µM,–
O=[N+]([O-])c1ccc(/C=N/N=C/c2ccc([N+](=O)[O-])o2)o1,active: 2.91 µM,–
CCOC(=O)c1c(C)sc2c1N(C(=O)CN(CC)CC)c1cc(Cl)ccc1S2,"inconclusive [cytotoxic, partial curve]",–
O=C(Nc1ccc(Cl)c(Cl)c1)Nc1ccccc1C(=O)O,–,inconclusive: -31.7% [cytotoxic]
Cc1cc(C)c2nc(NC(=O)c3ccc(OCC4CCCO4)cc3)sc2c1 (stereo unspecified),"inconclusive [cytotoxic, single point]",–
COc1ccc(C(=O)NC2CC(C)(C)Cc3c2cnn3-c2ccccc2C)c(OC)c1OC (stereo unspecified),–,inactive: -1.43%
O=C(CNC(=O)c1ccc(Br)cc1)NCCc1nc2ccccc2[nH]1,"inconclusive [cytotoxic, single point]",–
Cc1ccc(NC(=S)NNc2ncc(C(F)(F)F)cc2Cl)cc1,"inconclusive [cytotoxic, single point]",–
Cc1cc(Cl)n2c(nc3ccccc32)c1C#N,active: 7.31 µM,–
O=C(c1c(Cl)nc2sccn12)N(C(=O)c1c(Cl)nc2sccn12)c1ccc(Cl)cn1,"inconclusive [cytotoxic, single point]",–
Cc1cc(F)cc(-c2cc(C(=O)NCC3CCCCC3)[nH]n2)c1,"inconclusive [cytotoxic, single point]",–

SMILES,Potency,"activity, negative = toxicity"
CCCNCC(O)COc1ccccc1C(=O)CCc1ccccc1 (stereo unspecified),"inconclusive [cytotoxic, single point]",–
O=Nc1c(O)n(Cc2ccc(Cl)c(Cl)c2)c2ccccc12,"inconclusive [cytotoxic, partial curve]",–
Cc1cccc(Nc2nnc(SCC(=O)Nc3cccnc3Cl)s2)c1,–,inactive: 10.7%
COc1cc(OC)c2c(-c3cccc(-c4ccc(CO)cc4)c3)cc(=O)oc2c1,active: 0.517 µM,–
CN1/C(=C\C=[N+](C)c2ccccc2)C(C)(C)c2ccccc21,"inconclusive [cytotoxic, single point]",–
Cc1sc(NC(=S)NC(=O)c2ccco2)c(C(N)=O)c1C,"inconclusive [rising, partial curve]",–
O=c1c2ccccc2oc2cc(NCCCn3ccnc3)ccc12,–,inactive: 0.98%
CC(=O)Nc1ccc(S(=O)(=O)NC2=C(N3CCN(C)CC3)C(=O)c3ccccc3C2=O)cc1,–,inactive: 0.425%
Cc1ccc(C(C)C)c(OC/C(O)=C(\C#N)c2nc3ccccc3[nH]2)c1,"inconclusive [cytotoxic, single point]",–
CCOC(=O)c1nnc(-c2ccc(C)cc2)nc1Oc1ccccc1Cl,active: 23.1 µM,–
COc1ccc(-n2c(O)c(/C=N/Nc3nc(C)cc(C)n3)c3ccccc3c2=O)cc1OC,"inconclusive [cytotoxic, partial curve, poor fit]",–
CCOc1cc(CNc2nn[nH]n2)ccc1OCC(=O)NC(C)(C)C,–,inactive: 2.42%
Cc1ccc(C)c(C(=O)c2ccccc2NC(=O)c2ccccn2)c1,active: 20.6 µM,–
Fc1ccc(NC(=S)N2CCCC2)cc1Cl,"inconclusive [cytotoxic, partial curve, poor fit]",–
CC1Cc2cc(-c3csc(NC(=O)Cc4ccccc4)n3)ccc2N1S(C)(=O)=O (stereo unspecified),"inconclusive [cytotoxic, single point]",–
CC(C)CCn1cnc2c1c(=O)n(C)c(=O)n2C,–,inactive: 2.54%
Cc1cccc(NC(=S)N2CCC(c3nc4ccccc4s3)CC2)c1,"inconclusive [cytotoxic, single point]",–
CCN(CC)C(=O)Cc1cn(C)c2ccccc12,–,inactive: 5.16%
O=C(Cc1cccs1)Nc1nc2c(s1)CCCC2,active: 1.12 µM,–
C/C(=N\Nc1ccc(S(N)(=O)=O)cc1[N+](=O)[O-])c1cccnc1,–,inactive: -1.77%
Cn1cc(/C=C2\SC(=O)N(c3ccc(O)cc3)C2=O)c2ccccc21,"inconclusive [cytotoxic, single point]",–
COc1ccc(OCCN2CCC(C(=O)NC(c3ccc(F)cc3)c3ccc4ccccc4n3)CC2)cc1 (stereo unspecified),"inconclusive [cytotoxic, single point]",–
C#Cc1ccc([C@@H]2C=C(C(=O)N3CCN(Cc4ccc5c(c4)OCO5)CC3)O[C@H](OCC)[C@H]2CCCO)cc1,"inconclusive [cytotoxic, single point]",–
